# Reference: PMC10516938, “Conformational dynamics of cohesin/Scc2 loading complex are regulated by Smc3 acetylation and ATP binding” (Nature Communications, 2023)
# Results are given in words; binding and its absence hold for the method and conditions named. In cells and extracts the contact can be indirect. Some binding calls cover weakened binding; strength is not graded here.
# T1: Smc3 Q67C (S. cerevisiae) (UniProt P47037)
# T1 sequence: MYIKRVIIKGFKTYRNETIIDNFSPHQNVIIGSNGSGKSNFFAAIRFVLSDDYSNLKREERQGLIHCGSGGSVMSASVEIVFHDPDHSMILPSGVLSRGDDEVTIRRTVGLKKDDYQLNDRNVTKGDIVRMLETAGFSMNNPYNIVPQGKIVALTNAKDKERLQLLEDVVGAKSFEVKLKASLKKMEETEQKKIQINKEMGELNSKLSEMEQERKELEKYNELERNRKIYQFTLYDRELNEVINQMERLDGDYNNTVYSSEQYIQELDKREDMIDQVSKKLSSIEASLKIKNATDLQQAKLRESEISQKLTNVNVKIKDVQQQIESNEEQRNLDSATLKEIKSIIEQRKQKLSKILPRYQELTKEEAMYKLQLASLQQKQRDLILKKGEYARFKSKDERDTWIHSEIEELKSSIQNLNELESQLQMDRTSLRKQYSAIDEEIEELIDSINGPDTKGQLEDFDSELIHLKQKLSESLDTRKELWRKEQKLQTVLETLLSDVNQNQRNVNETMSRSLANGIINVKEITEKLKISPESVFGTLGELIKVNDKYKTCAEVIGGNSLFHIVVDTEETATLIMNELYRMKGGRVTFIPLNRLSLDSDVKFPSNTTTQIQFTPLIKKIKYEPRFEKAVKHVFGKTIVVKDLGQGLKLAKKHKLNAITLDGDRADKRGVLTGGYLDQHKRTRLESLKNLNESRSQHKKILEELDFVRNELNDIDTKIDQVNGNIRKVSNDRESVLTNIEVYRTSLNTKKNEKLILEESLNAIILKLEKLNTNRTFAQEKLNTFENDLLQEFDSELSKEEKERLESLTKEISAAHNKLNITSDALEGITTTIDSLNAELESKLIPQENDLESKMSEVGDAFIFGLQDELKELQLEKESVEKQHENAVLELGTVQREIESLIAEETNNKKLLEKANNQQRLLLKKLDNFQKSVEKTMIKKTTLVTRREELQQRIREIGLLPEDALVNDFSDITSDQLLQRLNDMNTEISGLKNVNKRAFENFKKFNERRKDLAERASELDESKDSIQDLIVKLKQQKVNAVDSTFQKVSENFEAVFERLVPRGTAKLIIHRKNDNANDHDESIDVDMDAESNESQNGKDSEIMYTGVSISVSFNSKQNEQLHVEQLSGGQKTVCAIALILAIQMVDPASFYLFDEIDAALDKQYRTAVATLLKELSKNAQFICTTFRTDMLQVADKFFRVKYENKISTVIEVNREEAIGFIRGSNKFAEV
# T2: Smc3^QQ W483R Q67C (S. cerevisiae) (UniProt P47037)
# T2 sequence: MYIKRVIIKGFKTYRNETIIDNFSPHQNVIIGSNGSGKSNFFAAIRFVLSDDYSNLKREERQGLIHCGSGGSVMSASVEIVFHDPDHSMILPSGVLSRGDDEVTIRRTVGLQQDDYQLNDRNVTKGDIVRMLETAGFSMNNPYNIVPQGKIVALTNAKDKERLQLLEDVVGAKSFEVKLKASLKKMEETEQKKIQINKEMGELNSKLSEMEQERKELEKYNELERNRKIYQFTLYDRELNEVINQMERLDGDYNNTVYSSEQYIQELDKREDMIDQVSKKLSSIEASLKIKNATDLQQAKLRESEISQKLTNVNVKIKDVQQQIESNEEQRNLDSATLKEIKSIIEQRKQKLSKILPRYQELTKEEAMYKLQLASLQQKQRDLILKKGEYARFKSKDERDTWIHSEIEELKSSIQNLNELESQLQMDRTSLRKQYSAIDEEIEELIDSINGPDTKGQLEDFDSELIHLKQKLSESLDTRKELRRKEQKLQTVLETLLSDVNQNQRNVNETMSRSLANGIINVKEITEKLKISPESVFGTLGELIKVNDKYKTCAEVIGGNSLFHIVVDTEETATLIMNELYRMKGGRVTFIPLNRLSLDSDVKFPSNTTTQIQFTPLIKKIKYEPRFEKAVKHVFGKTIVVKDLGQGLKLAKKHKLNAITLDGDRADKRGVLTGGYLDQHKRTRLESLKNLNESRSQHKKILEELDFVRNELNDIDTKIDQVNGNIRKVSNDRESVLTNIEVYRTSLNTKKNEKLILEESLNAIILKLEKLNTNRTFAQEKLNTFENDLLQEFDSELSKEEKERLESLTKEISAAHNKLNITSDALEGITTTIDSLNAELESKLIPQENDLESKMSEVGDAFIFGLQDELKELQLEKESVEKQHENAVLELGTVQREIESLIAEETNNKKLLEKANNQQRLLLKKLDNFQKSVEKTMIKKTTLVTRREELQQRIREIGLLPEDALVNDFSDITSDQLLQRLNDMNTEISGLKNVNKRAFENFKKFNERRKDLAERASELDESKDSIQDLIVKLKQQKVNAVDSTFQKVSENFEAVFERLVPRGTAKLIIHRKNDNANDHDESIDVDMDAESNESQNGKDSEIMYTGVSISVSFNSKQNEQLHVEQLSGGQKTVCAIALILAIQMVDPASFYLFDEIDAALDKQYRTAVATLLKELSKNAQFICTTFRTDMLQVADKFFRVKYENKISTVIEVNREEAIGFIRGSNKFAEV
# Tests used:
# [1] = target: T1, Smc3 Q67C (S. cerevisiae); assay: cross-linking; in vivo BMOE cross-link of cysteine pairs in yeast cells arrested in late G1 by non-degradable Sic1(9m); Scc1-PK immunoprecipitated, western blot, band intensities quantified
# [2] = target: T2, Smc3^QQ W483R Q67C (S. cerevisiae); assay: as above
binder,measurement,setting,value
"Scc2 T1175C (natural protein, S. cerevisiae, UniProt Q04002 1-1493, looked up, Scc2, S. cerevisiae; source: S. cerevisiae W303, in vivo, whole-cell extract) MSYPGKDKNIPGRIIEALEDLPLSYLVPKDGLAALVNAPMRVSLPFDKTIFTSADDGRDVNINVLGTANSTTSSIKNEAEKERLVFKRPSNFTSSANSVDYVPTNFLEGLSPLAQSVLSTHKGLNDSINIEKKSEIVSRPEAKHKLESVTSNAGNLSFNDNSSNKKTKTSTGVTMTQANLAEQYLNDLKNILDIVGFDQNSAEIGNIEYWLQLPNKKFVLTTNCLTKLQMTIKNITDNPQLSNSIEITWLLRLLDVMVCNIKFSKSSLKMGLDDSMLRYIALLSTIVLFNIFLLGKNDSNLHRESYIMEPVNFLSDLIESLKILTIEYGSLKIEFDTFQEALELLPKYIRNGPFLDDNVTAKLVYIFSDLLMNNDIEATTNIQFQSFWDNVKRISSDILVSLFGSFDQQRGFIIEELLSHIEKLPTKRIQKKLRKVGNQNIYITDFTFTLMSMLENINCYSFCNQMKDIAPENIDLLKNEYKKQEEFLFNIVEHINDTILERFFKNPSALRYVIDNFVQDLLLLISSPQWPVTEKILSSLLKRLLSVYSPSMQVSANIETICLQLIGNIGSTIFDIKCSTRDHEDNNLIKMINYPETLPHFFKSFEECIAYNETIKCRRSATRFLWNLRLGTILILEEYTKDAKEQIITVDNELKKILEQIKDGGLGPELENREADFSTIKLDYFSILHAFELLNLYDPYLKLILSLLAKDKIKLRSTAIKCLSMLASKDKVILSNPMVKETIHRRLNDSSASVKDAILDLVSINSSYFEFYQQINNNYNDDSIMVRKHVLRINEKMYDETNDIVTKVYVIARILMKIEDEEDNIIDMARLILLNRWILKVHEVLDQPEKLKEISSSVLLVMSRVAIMNEKCSQLFDLFLNFYLLNKEAHSKEAYDKITHVLTILTDFLVQKIVELNSDDTNEKNSIVDKQNFLNLLAKFADSTVSFLTKDHITALYPYMVSDEKSDFHYYILQVFRCTFEKLANFKQKFLYDLETTLLSRLPKMNVREIDEAMPLIWSVATHRHDTARVAKACSSCLSHLHPYINKANNEEAAIVVDGKLQRLIYLSTGFARFCFPKPSNDKIAFLQEGETLYEHITKCLLVLSKDKITHVIRRVAVKNLTKLCGNHPKLFNSRHVLHLLDKEFQSDQLDIKLVILESLYDLFLLEERKSVRNCGVNSTLSSNSILKKKLLKTNRVEFANDGVCSALATRFLDNILQLCLLRDLKNSLVAIRLLKLILKFGYTNPSHSIPTVIALFASTSQYIRHVAYELLEDLFEKYETLVFSSLSRGVTKAIHYSIHTDEKYYYKHDHFLSLLEKLCGTGKKNGPKFFKVLKRIMQSYLDDITDLTSTNSSVQKSIFVLCTNISNITFVSQYDLVSLLKTIDLTTDRLKEVIMDEIGDNVSSLSVSEEKLSGIILIQLSLQDLGTYLLHLYGLRDDVLLLDIVEESELKNKQLPAKKPDISKFSAQLENIEQYSSNGKLLTYFRKHVKDT",binding,[1],binds
same,binding,[2],binds
